Laboratory results published in the supplement of paper PMC7826260.
The other results are listed elsewhere or left out. Viral Rep nickase domains cut single-stranded DNA in vitro (1 h at 37 °C, 3 µM enzyme); the outer parts of the 90-letter strands are left off. Numbers give uncut DNA relative to the enzyme-free pool, as log2; the lower, the more was cut; hits are not called. Counts are relative to all reads, so uncut sequences can rise above 0 when many others are cut.

Legend:
Assay in all cases: uncleaved DNA left, log2 of reads against the no-enzyme library (log2 ratio); higher = less cleavage (more negative = more Rep cleavage of the k-mer); sequences stand for … in CTCGTCCG…ACCGGAGA
[1] = test system: T1, Rep nickase domain of Muscovy duck circovirus
T1 sequence (residues 1-111 of Rep, tag left off): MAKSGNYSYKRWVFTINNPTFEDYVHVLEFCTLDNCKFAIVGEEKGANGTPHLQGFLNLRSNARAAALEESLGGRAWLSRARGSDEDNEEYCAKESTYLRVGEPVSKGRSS
Protocol: (§1)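 A pool of 90-nt single-stranded DNAs with seven random bases just before the constant AC of the nick site (name = the seven bases) was cut by 3 µM recombinant His6-SUMO-tagged Rep nickase domain (300 nM DNA, 50 mM HEPES pH 8.0, 50 mM NaCl, 1 mM MnCl2, 1 h, 37 °C, three replicates). Uncut DNA was amplified and sequenced.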

[2] = test system: T2, Rep nickase domain of banana bunchy top virus
T2 sequence (residues 1-94 of Rep, tag left off): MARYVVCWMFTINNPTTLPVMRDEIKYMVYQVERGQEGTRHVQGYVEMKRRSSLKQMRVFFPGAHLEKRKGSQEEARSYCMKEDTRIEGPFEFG
Protocol: as §1

[3] = test system: T3, Rep nickase domain of cabbage leaf curl virus
T3 sequence (residues 1-116 of Rep, tag left off): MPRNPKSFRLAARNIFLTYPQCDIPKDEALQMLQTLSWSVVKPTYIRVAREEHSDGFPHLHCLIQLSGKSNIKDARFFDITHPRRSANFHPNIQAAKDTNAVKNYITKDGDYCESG
Protocol: as §1

[4] = test system: T4, Rep nickase domain of chickpea chlorotic dwarf virus
T4 sequence (residues 1-124 of Rep, tag left off): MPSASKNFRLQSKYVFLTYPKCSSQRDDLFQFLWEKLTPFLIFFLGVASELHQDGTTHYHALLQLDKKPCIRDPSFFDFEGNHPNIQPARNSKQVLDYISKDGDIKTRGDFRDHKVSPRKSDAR
Protocol: as §1

[5] = test system: T5, Rep nickase domain of faba bean necrotic yellows virus
T5 sequence (residues 1-98 of Rep, tag left off): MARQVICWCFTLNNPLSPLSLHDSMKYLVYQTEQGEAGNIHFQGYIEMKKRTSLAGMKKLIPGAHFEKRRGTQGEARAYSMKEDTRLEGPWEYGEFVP
Protocol: as §1

[6] = test system: T6, Rep nickase domain of maize striate mosaic virus
T6 sequence (residues 1-117 of Rep, tag left off): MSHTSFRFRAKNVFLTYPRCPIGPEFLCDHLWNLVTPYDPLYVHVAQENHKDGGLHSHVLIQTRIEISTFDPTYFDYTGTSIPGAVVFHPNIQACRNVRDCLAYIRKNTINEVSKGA
Protocol: as §1

[7] = test system: T7, Rep nickase domain of porcine circovirus 2
T7 sequence (residues 2-116 of Rep, tag left off): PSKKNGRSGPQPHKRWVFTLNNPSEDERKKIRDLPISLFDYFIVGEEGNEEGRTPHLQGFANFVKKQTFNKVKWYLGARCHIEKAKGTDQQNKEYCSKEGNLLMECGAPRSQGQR
Protocol: as §1

[8] = test system: T8, Rep nickase domain of tomato yellow leaf curl virus
T8 sequence (residues 1-136 of Rep, tag left off): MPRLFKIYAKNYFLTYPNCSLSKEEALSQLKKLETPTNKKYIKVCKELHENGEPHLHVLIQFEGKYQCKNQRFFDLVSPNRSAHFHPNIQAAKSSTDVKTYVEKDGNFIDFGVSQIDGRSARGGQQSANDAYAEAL
Protocol: as §1

[9] = test system: T9, Rep nickase domain of wheat dwarf virus
T9 sequence (residues 1-137 of Rep, tag left off): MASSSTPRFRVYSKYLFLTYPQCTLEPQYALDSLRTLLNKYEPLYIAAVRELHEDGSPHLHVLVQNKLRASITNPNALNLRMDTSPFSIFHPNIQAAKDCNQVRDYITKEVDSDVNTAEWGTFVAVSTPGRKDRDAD
Protocol: as §1

Sequence	uncleaved DNA left (log2) [1]	uncleaved DNA left (log2) [2]	uncleaved DNA left (log2) [3]	uncleaved DNA left (log2) [4]	uncleaved DNA left (log2) [5]	uncleaved DNA left (log2) [6]	uncleaved DNA left (log2) [7]	uncleaved DNA left (log2) [8]	uncleaved DNA left (log2) [9]
TTTGGCG	0.0173	-0.0146	-0.585	0.948	0.0578	-0.238	0.126	-0.085	-0.132
GCACCGT	-0.178	-0.0505	-0.29	-0.275	-0.0618	-0.483	-0.0493	-0.0876	-0.0449
GTTGAAT	0.0563	0.0559	0.363	0.89	0.0437	1.7	0.00275	0.0855	0.078
TCGGCTA	0.0876	-0.0186	0.0493	-0.103	-0.0537	0.468	-0.0565	-0.194	0.0184
AAATGTC	0.0361	-0.102	-3.18	-2.56	0.0436	-2	-0.259	-0.169	-0.653
CGAAATG	-0.032	-0.0319	-0.122	0.513	-0.0918	0.944	-0.0214	-0.0226	0.0475
CTACGGT	-0.028	0.0119	0.0579	-0.391	0.0279	0.828	-0.241	-0.176	-0.0931
TTTTGCC	-0.119	-0.159	-0.617	-0.704	0.00261	-1.16	0.0892	0.00666	-0.0888
GTCCACT	0.032	0.0847	0.288	0.647	-0.0347	1.55	0.108	0.0945	0.194
TATTTAC	-0.402	0.059	0.0321	-1.81	-0.00782	-0.197	-0.296	0.037	0.0534
AGGAACA	-0.00337	0.0504	0.273	0.314	-0.16	1.12	-0.00453	-0.0192	0.121
AATTTGA	-0.17	-0.0375	-0.183	-0.596	-0.0115	-1.22	-0.28	-0.0894	-0.0353
CGCTCTC	0.0347	-0.158	0.0115	-0.193	-0.0693	-0.24	-0.129	-0.19	-0.0493
ACTACGC	-0.0228	-0.074	-0.136	-0.333	0.0619	-1.13	0.119	-0.0927	-0.112
CGGCATT	-0.0515	-0.243	0.635	1.42	-0.13	1.9	-0.0634	-0.1	0.0319
GCATCCT	-0.42	-0.00787	-0.0207	-1.27	-0.157	-0.00252	-0.452	-0.0282	-0.126
ACATTCT	-0.912	0.0562	-0.552	-2.54	-0.0289	-1.01	-1.53	-0.0818	-0.0386
ATGAGAA	0.104	-0.0346	0.102	0.298	0.158	-0.27	0.0944	0.0442	0.0349
CTTACCG	-0.0183	-0.0128	-0.918	-1.72	0.117	-0.959	0.0636	-0.0207	-0.195
CTAACAA	-0.0488	0.0733	-0.434	-1.19	-0.0258	-0.679	0.0632	-0.0332	0.00984
TAGTCCC	-0.24	-0.208	-0.0827	-0.478	-0.372	0.206	-3.19	-0.166	-0.121
AAGATCC	0.0676	0.0976	0.128	-0.0813	-0.0371	0.197	0.0039	-0.0649	0.0502
CACAGCA	0.15	0.038	-0.382	-1.37	0.0297	-1.05	-0.0851	-0.0432	0.0337
TACGTTT	-0.111	-0.291	-2.66	-2.77	-0.105	-0.524	-1.72	-0.0849	-0.609
CTAGGTG	0.13	0.0694	-0.451	-0.299	0.0282	-0.752	0.133	0.0832	0.0335
GACAACC	-0.0412	-0.0548	0.131	-0.649	-0.0028	0.442	-0.393	-0.0788	0.0253
GTTGATC	0.072	-0.0745	0.344	0.82	-0.00641	1.33	0.022	-0.0624	0.0288
CGGGTAC	-0.146	-0.111	0.554	1.33	-0.0835	1.58	0.201	-0.0862	-0.0688
TAGCAAG	0.0933	-0.152	-0.655	-0.619	0.175	-1.1	0.116	-0.00916	-0.0657
ACCGACG	0.0655	0.0261	-0.66	-0.343	0.0282	-0.778	0.208	-0.028	-0.0505
